Hit rate of the full screen: of about 280,000 compounds, about 100 (0.036%) were called active. Inconclusive means that the source gave no clear call. Such entries were picked first, then a sample of the others. Calls come from the whole dose curve; as a rule, active = well fitted inhibition curve with a large enough effect in the signal ratio, with a control signal flat (not every such curve was filed as active); inconclusive = small, poorly fitted or top-dose-only effect, or effect the other way, or a change in a side signal; inactive = no such curve, though single readings can be large or run the other way; the % refers to the signal ratio. Potencies beside an inconclusive call are fits to weak or partial responses and may not hold up. “Side channel” marks fits to a control or component signal instead of the main read-out.
biological target: Muscleblind-like protein 1 (Homo sapiens) (UniProt Q9NR56); assay: qHTS Assay for Inhibitors of MBNL1-poly(CUG) RNA binding; conditions: TR-FRET MBNL1-His/biotin-(CUG)12 binding, 665/545 ratio; activity change, negative = inhibition: at 57.5 µM (top of the series)
How it was run: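 MBNL1-His + Biotin-(CUG)12, cpd titration 92 nM–58 uM; Tb anti-His Ab 0.055 ng/ul, SA-XL665 5 nM (final); 60 min RT; ratiometric 665/545 nm, Ex 340 nm; normalized to buffer and full-complex controls.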
% is set by controls: 0 for no effect and ±100 for the full control effect; potency is the fitted concentration of half-maximal effect; tags give direction and shape of the fitted curve or compound fluorescence and quenching.

UniProt Q9NR56, sequence (Q9NR56 whole entry, looked up): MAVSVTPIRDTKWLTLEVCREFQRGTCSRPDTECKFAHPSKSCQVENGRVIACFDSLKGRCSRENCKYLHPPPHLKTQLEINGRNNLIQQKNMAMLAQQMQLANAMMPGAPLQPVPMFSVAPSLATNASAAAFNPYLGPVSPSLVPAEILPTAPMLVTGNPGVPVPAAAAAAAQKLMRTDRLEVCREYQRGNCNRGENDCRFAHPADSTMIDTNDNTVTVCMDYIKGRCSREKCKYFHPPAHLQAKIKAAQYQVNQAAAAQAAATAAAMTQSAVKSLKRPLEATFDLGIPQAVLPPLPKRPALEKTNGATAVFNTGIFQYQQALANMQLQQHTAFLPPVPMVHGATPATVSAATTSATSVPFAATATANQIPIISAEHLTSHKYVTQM

Structure (SMILES)	Potency	activity change, negative = inhibition
CCOC(=O)C1(Cc2cccc(F)c2)CCN(Cc2cn(CC)nc2C)CC1	inconclusive: 79.4 µM [inhibitor, partial curve, poor fit]	
COc1ccc2c(c1)cc1n2CCN2CCCN=C12	inconclusive: 17.8 µM [quencher, side channel, partial curve]	
COc1cc(NC(=O)c2ccc(OC)c([N+](=O)[O-])c2)ccc1NC(=O)c1ccco1	inconclusive: 28.2 µM [quencher, single point]	
COc1cc(/C=C(\C#N)c2[nH]nc(N)c2C#N)cc(OC)c1O	inconclusive: 31.6 µM [quencher, side channel, partial curve]	
Clc1ccc(-c2csc(=Nc3cccnc3)n2CCCn2ccnc2)cc1Cl		inactive: 26.1%
CC1CCC2C(=O)N(c3ccc(S(=O)(=O)c4ccccc4)cc3)C(=O)C2C1 (stereo unspecified)	inconclusive: 6.31 µM [quencher, side channel, single point]	
O=C(N/N=C/c1ccccc1O)NC12CC3CC(CC(C3)C1)C2		inactive: -6.77%
O=C(NC1CCCCC1)c1cc([N+](=O)[O-])ccc1N1CCCC1	inconclusive: 2.82 µM [quencher, side channel, full curve, poor fit]	
O=C(NCc1cccnc1)C(=O)Nc1ccc([N+](=O)[O-])cc1	inconclusive: 15.8 µM [quencher, partial curve]	
CCN(CC)C(=O)/C(=C/c1cccc([N+](=O)[O-])c1)NC(=O)c1ccco1	inconclusive: 22.4 µM [quencher, side channel, partial curve]	
Nc1nn(-c2ccccc2)c(N)c1N=Nc1ccccc1F	inconclusive: 8.91 µM [quencher, side channel, partial curve]	
O=C(c1ccc(F)cc1)N1CCN(c2ccc(N3CCOCC3)nn2)CC1	inconclusive: 31.6 µM [quencher, side channel, partial curve]	
COc1ccc([N+](=O)[O-])cc1NC(=O)CSCc1ccccc1	inconclusive: 0.708 µM [activator, full curve, poor fit]	
COC(=O)C1CCN(c2c([N+](=O)[O-])cc(C(F)(F)F)cc2[N+](=O)[O-])CC1	inconclusive: 22.4 µM [quencher, side channel, partial curve, poor fit]	
O=Cc1cnc(N2CCN(Cc3ccccc3)CC2)s1	inconclusive: 14.1 µM [quencher, side channel, partial curve]	
CNC(=S)N(C1=NCC(c2ccc([N+](=O)[O-])cc2)S1)c1ccccc1 (stereo unspecified)	inconclusive: 25.1 µM [quencher, side channel, partial curve]	
CCC(=O)N1CC2(CC(c3cccc(NC(=O)COc4ccc(Cl)cc4)c3)=NO2)C[C@@H]1C(N)=O (stereo partly specified)		inactive: 0.78%
Cc1sc2nc3ccc(NCc4ccco4)nn3c(=O)c2c1C	inconclusive: 14.1 µM [quencher, side channel, partial curve]	
CCCC[C@H]1COCCS(=O)(=O)N1Cc1cccc([N+](=O)[O-])c1	inconclusive: 31.6 µM [quencher, side channel, partial curve]	
CS(=O)(=O)c1cnc2c(S(=O)(=O)c3ccccc3)cnn2c1N		inactive: 6.55%
CCn1c(=O)n(CC)c2cc(S(=O)(=O)N3CCCCC3)c(C)cc21		inactive: 2.99%

Structure (SMILES)	Potency	activity change, negative = inhibition
COc1cc(SC)ccc1C(=O)N1CCN(Cc2ccccc2)CC1		inactive: -4.4%
Cc1nc2c(S(=O)(=O)c3ccccc3)cnn2c(C)c1C		inactive: -1.84%
CN(C)c1ccc(/C=C/c2ccc3c4ccccc4ccc3[n+]2-c2ccccc2)cc1	inconclusive: 14.1 µM [quencher, side channel, partial curve]	
CC(=O)c1ccc(NC(=O)c2noc(C(C)C)c2[N+](=O)[O-])cc1	inconclusive: 20 µM [quencher, side channel, single point]	
COC(=O)CC(NC(=O)Nc1ccc(C)cc1)c1cccc([N+](=O)[O-])c1 (stereo unspecified)	inconclusive: 22.4 µM [quencher, single point]	
c1coc(CNc2nc(N3CCCCC3)nc3ccccc23)c1		inactive: 1.39%
CC(C)CN(C(=O)CN1CCN(c2ccc([N+](=O)[O-])cc2)CC1)c1c(N)n(CC(C)C)c(=O)[nH]c1=O	inconclusive: 15.8 µM [quencher, side channel, partial curve]	
CC(C)N=c1c([N+](=O)[O-])nn(C)n1O	inconclusive: 28.2 µM [quencher, side channel, single point]	
COc1cc(/C=N/NC(=O)c2ccc(O)cc2)ccc1Oc1ccc([N+](=O)[O-])cn1	inconclusive: 12.6 µM [quencher, side channel, single point]	
CN1CCc2c(sc(/N=C/c3cccs3)c2C(N)=O)C1	inconclusive: 14.1 µM [quencher, side channel, partial curve]	
Cc1ccc2c(c1)[nH]c1c(N3CCN(Cc4ccccc4)CC3)ncnc12		inactive: -9.31%
CCN(CC)C(=O)c1cc2c(=O)n3cccc(C)c3nc2s1	inconclusive: 15.8 µM [quencher, side channel, partial curve]	
O=C(O)C(Cc1ccccc1)N1C(=O)/C(=C/c2cccc3ccccc23)SC1=S (stereo unspecified)	inconclusive: 3.55 µM [fluorescent, side channel, full curve, poor fit]	
O=C(CS(=O)c1ccc(F)cc1)N1CCOCC1 (stereo unspecified)		inactive: 3.2%
CC(=O)Nc1nc(C)c(-c2nc3ccc([N+](=O)[O-])cc3[nH]2)s1	inconclusive: 6.31 µM [quencher, side channel, partial curve]	
CCN(CC)Cc1c(C(=O)N/N=C/c2ccco2)nnn1-c1nonc1N	inconclusive: 44.7 µM [quencher, side channel, partial curve, poor fit]	
N#C/C(=C\c1c(Oc2ccc(Cl)cc2)nc2ccccn2c1=O)C(=O)NC1CCS(=O)(=O)C1 (stereo unspecified)	inconclusive: 8.91 µM [quencher, partial curve, poor fit]	
Cc1nnc(N2C(=O)c3cccc4cccc(c34)C2=O)s1	inconclusive: 11.2 µM [quencher, side channel, partial curve]	
OC(CNCCc1ccc(C(F)(F)F)cc1)COC(c1ccccc1)c1ccccc1 (stereo unspecified)		inactive: -3.91%
Cc1c(N=C/C=C2/N(C)c3ccccc3C2(C)C)c(=O)n(-c2ccccc2)n1C	inconclusive: 31.6 µM [quencher, side channel, partial curve]	
Cc1ccc(C)c(N2C(=O)c3cc(N4CCOCC4)c([N+](=O)[O-])cc3C2=O)c1	inconclusive: 5.62 µM [quencher, side channel, full curve]	

Structure (SMILES)	Potency	activity change, negative = inhibition
NC(=S)N/N=C/c1ccccc1OC(=O)c1cc2ccccc2oc1=O	inconclusive: 14.1 µM [quencher, side channel, partial curve]	
CCOC(=O)C1=C(N)OC2=C(C(=O)CCC2)C1c1ccco1 (stereo unspecified)	inconclusive: 31.6 µM [quencher, side channel, single point]	
CC(C(=O)NC(C)(C)C)N1C(=O)c2cccc3cccc(c23)C1=O (stereo unspecified)	inconclusive: 12.6 µM [quencher, side channel, partial curve]	
COCc1cc(C)nc(OCC(=O)N/N=C/c2ccc(-c3cccc([N+](=O)[O-])c3)o2)c1C#N	inconclusive: 3.55 µM [quencher, side channel, single point]	
CC(=Nc1cccc(O)c1)c1sc2ccccc2c1O	inconclusive: 12.6 µM [quencher, side channel, partial curve]	
COc1cc2c(cc1OC)C(C)=NC1(CCCCC1)C2		inactive: 16.4%
O=C1Nc2ccc(S(=O)(=O)NCCCO)c3cccc1c23	inconclusive: 28.2 µM [quencher, side channel, partial curve]	
CCCC(=O)c1cc2cc(Cl)ccc2oc1=O	inconclusive: 2.24 µM [quencher, side channel, full curve]	
c1ccc(-c2nc(-c3ccco3)n3ccccc23)cc1	inconclusive: 39.8 µM [quencher, side channel, single point]	
CC(=O)N(C(C)=O)N1C(=O)/C(=C/c2ccc(Cl)cc2)SC1=S	inconclusive: 31.6 µM [quencher, single point]	
O=C(CCc1ccccc1)c1nnc(-c2ccccc2)o1		inactive: 4.57%
CCOC(=O)C(NC(=O)Nc1ccc(F)cc1F)(Oc1ccccc1)C(F)(F)F (stereo unspecified)		inactive: -24.4%
COc1ccc(/C=C2\CCc3ccccc3C2=O)cc1O	inconclusive: 14.1 µM [quencher, side channel, partial curve]	
COc1ccc(OCCSc2nc3ccccc3c(=O)[nH]2)cc1	inconclusive: 39.8 µM [fluorescent, side channel, single point]	
COC(=O)c1cc(S(=O)(=O)NCc2cccs2)c[nH]1		inactive: -3.97%
CCCN(CCC)S(=O)(=O)c1ccc(N2CCCC2=O)c([N+](=O)[O-])c1	inconclusive: 0.891 µM [quencher, side channel, full curve, poor fit]	
Cc1ccccc1-c1nc(C#N)c(N2CCC(C)CC2)o1		inactive: 3.57%
COc1ccc(CNC(=O)CN(C(=O)c2snc(C(N)=O)c2N)c2ccccc2F)cc1	inconclusive: 28.2 µM [quencher, side channel, partial curve]	
Cc1cc2c3c(c1)C(C)CC(C)(C)N3C(=O)C2=O (stereo unspecified)	inconclusive: 20 µM [quencher, side channel, partial curve]	
